Source: PubChem BioAssay AID686970 (National Center for Advancing Translational Sciences (NCATS), 2013)
Values joined by “and” are separate entries in the source; they are usually repeats but may differ in a detail not shown here. Identical values can stand only once. Among all 360,000 compounds or so, about 6,000 (1.7%) were called active. This list was built around the results that the source calls inconclusive (neither active nor inactive); the mix of calls is not that of the screen. The call rests on the fitted dose curve; in most records, active means well fitted cell-killing curve with a large enough effect; inconclusive means small, poorly fitted or top-dose-only effect, or effect the other way; inactive means flat fitted curve, though single readings scatter. No potency is given beside an inconclusive call; the fits are too rough.

Experiment: qHTS for induction of synthetic lethality in tumor cells producing 2HG: qHTS for the HT-1080-NT fibrosarcoma cell line;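 further: NT is the 2HG producing partner of a matched IDH1 knockdown line; nearly all actives have a fitted effect of over 55% in size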;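 on activity, negative = less viability: 0% = DMSO-treated cells and -100% = media-only wells without cells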
Conditions: HT-1080-NT fibrosarcoma viability, CellTiter-Glo ATP luminescence, 48 h; activity, negative = less viability: at 46.1 µM (top of the series) unless noted
Procedure, shortened: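 Viability of the 2HG-overproducing fibrosarcoma line after 48 hours of compound exposure at 37 degrees C was determined by luminescence with CellTiter-Glo, and concentration-effect curves were then fitted and categorized.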
Potency means the concentration at half of the fitted maximal effect; tags describe the fitted curve by direction and shape.

SMILES	Potency	activity, negative = less viability
O=C(Nc1ccc(F)cc1)Nc1sccc1-c1nc2ccccc2s1	active: 16.4 µM	–
COCC1CCCN(Cc2nc(C(c3ccccc3)c3ccccc3)no2)C1 (stereo not given)	inactive	–
OCC1(Cc2ccc(Cl)cc2)CCN(Cc2ccccc2F)CC1	inconclusive [cytotoxic, single point]	–
COc1cc(NC(=O)c2csc(N)n2)cc(C(=O)Nc2cccc(C(F)(F)F)c2)c1	active: 13 µM and active: 16.4 µM	–
CCOC(=O)c1ccc(Oc2cc(C)nc(SC)n2)cc1	active: 16.4 µM	–
COc1ccc(C(C)(O)c2nc(-c3cccc(O)c3)cs2)cc1 (stereo not given)	inconclusive [cytotoxic, partial curve]	–
O=C(NNC1CC(=O)N(c2ccc(Cl)cc2)C1=O)c1ccccc1Cl (stereo not given)	inconclusive [cytotoxic, partial curve, poor fit]	–
O=S(=O)(c1cccs1)N1CCN(Cc2nc3ccccc3s2)CC1	inactive	–
O=C(NCCC1CCCCN1S(=O)(=O)c1cccs1)C(=O)NCc1ccccc1 (stereo not given)	inactive	–
Cc1[nH]c2ccccc2c1C(=O)/C=C/c1ccccc1	inconclusive [cytotoxic, single point]	–
C/C(=N/Nc1nc(-c2ccccc2F)nc2ccccc12)c1ccccc1O	–	inconclusive: 32.7%
Cc1cc(C)nc(N2CCCC(C(=O)Nc3cccc(Cl)c3)C2)n1 (stereo not given)	inactive	–
O=C(O)C1[C@H]2C(=O)N(C3CCCC3)C[C@]23C=C[C@H]1O3 (stereo not given in full)	inconclusive [rising, single point]	–
CC(C)(C)c1cc(C(=O)NNc2cccc(Cl)c2)n(Cc2ccccc2)n1	active: 20.6 µM	–
CCc1cccc(C)c1NC(=O)CN(C)Cc1ccccc1F	inactive	–
CCOC(=O)c1cnc(-n2nc(C)cc2C)nc1NC1CCCCC1	inconclusive [cytotoxic, single point]	–
COc1ccc(S(=O)(=O)N2CC(O)C[C@H]2C(=O)OCC(=O)N2CCCCCC2)cc1 (stereo not given in full)	inactive	–
CCOC(=O)N1CCN(C(=S)Nc2ccc(C)cc2C)CC1	–	inconclusive: 30.9%
CC(=O)c1ccc(N2C(=O)C3C(C2=O)C(C(=O)c2ccc(Cl)cc2)N2CCCC32)cc1 (stereo not given)	active: 16.4 µM	–
CC[C@H](C)NC(=O)CCCCCn1c(=S)[nH]c2c([nH]c3ccc(OC)cc32)c1=O	inconclusive [cytotoxic, single point]	–
Cc1cccc(NS(=O)(=O)c2cccc(C(=O)N3CCN(C/C=C/c4ccccc4)CC3)c2)c1	inactive	–
Cc1cc(C)c(CN2CCC(N3CCC(C(=O)NCC4CCCO4)CC3)CC2)cc1C (stereo not given)	inconclusive [cytotoxic, partial curve]	–
O=[N+]([O-])c1ccc(NC(=S)NCCc2ccc(Cl)cc2)cc1	inconclusive [cytotoxic, single point]	–
COc1cc(/C=C2\SC(=O)NC2=O)ccc1Oc1ccc([N+](=O)[O-])cc1[N+](=O)[O-]	inactive	–
CCOc1ccc(NC(=O)CCNC(=O)c2ccc(Br)cc2)cc1	–	inconclusive: -30.4%

SMILES	Potency	activity, negative = less viability
Cc1nc(N2CCC(C)CC2)c2oc3ccccc3c2n1	inconclusive [cytotoxic, single point]	–
COCCn1c(SCC(=O)Nc2cccc(C(=O)OC)c2)nc2ccccc2c1=O	inactive	–
C=CC[C@@H](CC(=O)N[C@@H](CO)Cc1ccccc1)C(=O)N[C@H](COC(=O)[C@@H](CC=C)Cc1ccc(F)cc1)C(C)(C)C	inconclusive [cytotoxic, single point]	–
Cc1ccc(CNC(=O)Cc2ccc(-n3cccc3)cc2)cc1	inconclusive [cytotoxic, full curve]	–
COC(=O)c1ccccc1NC(=S)NC(=O)CC(C)C	inconclusive [cytotoxic, single point]	–
Cc1ccc(-c2csc(C(C)(O)c3cccc(F)c3)n2)cc1C (stereo not given)	–	inconclusive: -51.6%
N=C1C(c2nc3ccccc3s2)=C(O)CN1NC(=O)c1ccc([N+](=O)[O-])cc1	inconclusive [cytotoxic, single point]	–
CC(OC(=O)c1ccc(Cl)c(S(N)(=O)=O)c1)C(=O)NCc1ccc2c(c1)OCO2 (stereo not given)	inactive	–
N=c1c2c(n(Cc3ccc(Cl)c(Cl)c3)c3c1CCC3)CCCC2	active: 23.1 µM	–
CCN1CCN(c2cc(C)c3cc(NC(=O)c4ccncc4)ccc3n2)CC1	inactive	–
CC1(C)CC2(CC(c3cccs3)c3cc(Cl)c(O)cc3O2)NC(=S)N1 (stereo not given)	inactive	–
COc1ccccc1NC(=O)Cn1cc(C(=O)c2ccco2)c2ccccc21	inactive	–
CC1CCC2(CC1)NC(=O)N(CC(=O)Nc1ccc3c(c1)OCO3)C2=O (stereo not given)	inactive	–
NC(Cc1ccc(Cl)cc1)c1csc(Nc2ccc(C(=O)c3ccccc3)cc2)n1 (stereo not given)	inconclusive [cytotoxic, single point]	–
O=c1c2ccccc2nc(/C=C/c2cccnc2)n1CCc1ccccc1	inconclusive [cytotoxic, single point]	–
COc1ccc(-c2csc(C(O)c3ccc(F)c(OC)c3)n2)cc1 (stereo not given)	inconclusive [cytotoxic, partial curve]	–
COc1ccc(CN(C)C(=O)C2CSC3(C)CCC(=O)N23)cc1 (stereo not given)	inactive	–
CCOC(=O)C1=C(O)/C(=C/c2cn(CC(=O)NCC3CCCO3)c3ccccc23)SC1=Nc1ccc(C)cc1 (stereo not given)	inconclusive [cytotoxic, partial curve]	–
CCN(CC)CCCNc1cc(C(F)(F)F)c(C#N)c2nc3ccccc3n12	inconclusive [cytotoxic, partial curve]	–
CCc1ccccc1Nc1nc(N)nc(COC(=O)c2cccn2C)n1	inconclusive [cytotoxic, partial curve]	–
COc1ccc(CNC(=O)/C=C/[C@H]2O[C@@H](n3cc(C)c(=O)[nH]c3=O)C[C@@H]2O)cc1	inactive	–
O=C(CSc1nc(Nc2ccccc2)nc(N2CCOCC2)n1)Nc1ccc(Br)cc1F	inactive	–
Cc1sc(NC(=O)CN(Cc2ccc(F)cc2)C(=O)C(C)C)c(C(N)=O)c1C	inconclusive [rising, partial curve]	–
COc1ccc(CC(=O)N2CCc3cc(OC)c(OC)cc3C2C)c(OC)c1 (stereo not given)	inactive	–
Cc1oc(-c2cccs2)cc1C(=O)N1CCCC(C)(C(=O)O)C1 (stereo not given)	inactive	–

SMILES	Potency	activity, negative = less viability
Cc1nc(C)c(-c2csc(N)n2)s1	inactive	–
CN(C)c1ccc(NC(=O)Nc2ccc3c(c2)nnn3C)cc1	inactive	–
CCn1c(COc2ccccc2C)nnc1SCC(=O)CC(=O)Nc1ccccc1OC	inactive	–
Cc1ccc(NC(=O)CSc2ccc3c(c2)OCCO3)c(O)c1	inactive	–
O=C(Cc1ccccc1)NC(NC(=O)Cc1ccccc1)c1cccc([N+](=O)[O-])c1	inconclusive [cytotoxic, single point]	–
NC(=O)C1(N2CCCCC2)CCN(Cc2ccccc2Cl)CC1	inconclusive [cytotoxic, full curve, poor fit]	–
COc1ccc(CNc2nccn3ccnc23)cc1	inconclusive [rising, single point]	–
Cn1nccc1-c1coc2c(C(=O)N3CCOCC3)cccc12	inconclusive [rising, partial curve]	–
COc1ccccc1CN1CC(C(=O)NCCC2=CCCCC2)CCC1=O (stereo not given)	inactive	–
COCCNC(=O)C1CCCN(C(=O)c2cc(C)nn2C(C)(C)C)CC1 (stereo not given)	inconclusive [rising, partial curve]	–
CCCC(=O)Nc1ccc(C(=O)N/N=C/c2ccc([N+](=O)[O-])o2)cc1	active: 11.6 µM	–
C/C(=N\NC(=O)c1cc(Cl)ccc1O)c1ccc(Br)s1	inactive	–
Cc1ccc(S(=O)(=O)N2CCC(C(=O)NNS(=O)(=O)c3ccc(Cl)cc3)CC2)cc1	inactive	–
Cc1ccc(-c2nnc(Nc3ccccc3)c3ccccc23)cc1S(=O)(=O)NCC1CCCO1 (stereo not given)	inactive	–
Cc1cc(C)cc(NC(=O)CSc2nc3[nH]ncc3c(=O)[nH]2)c1	inconclusive [cytotoxic, single point]	–
COc1ccc(NCC(=O)Nc2ccc(Cl)cc2C)c(OC)c1	inconclusive [cytotoxic, single point]	–
O=C(O)c1ccccc1NC(=O)C(c1ccccc1)c1ccccc1	inactive	–
COc1ccc(NC(=S)NNc2ccc(S(=O)(=O)Nc3ccccc3C(=O)O)cc2[N+](=O)[O-])cc1	inconclusive [cytotoxic, single point]	–
CCCSC(=S)c1c(C)[nH]n(-c2ccccc2)c1=O	inconclusive [cytotoxic, partial curve, poor fit]	–
CCCn1c(SCC(=O)NCc2ccccc2)nnc1-c1ccncc1	inactive	–
O=C(/C(=C/c1ccc(Cl)cc1)c1nc2ccccc2[nH]1)c1cccs1	active: 16.4 µM	–
Cc1ccccc1Cn1cc(S(=O)(=O)CC(=O)Nc2nccs2)c2ccccc21	inconclusive [cytotoxic, single point]	–
Cn1c(N)c(C(=O)COC(=O)C2CCC(C(C)(C)C)CC2)c(=O)n(C)c1=O (stereo not given)	inconclusive [cytotoxic, single point]	–
CC(=O)Nc1ccc(S(=O)(=O)Oc2ccccc2N2CCCCC2)cc1	inconclusive [cytotoxic, single point]	–
Cc1ccc(S(=O)(=O)N(Cc2ccccc2)c2ccccc2C(=O)NCc2ccco2)cc1	active: 11.2 µM	–
